In article PMC4336329 (PLoS ONE, 2015):
In all, about 310,000 compounds went through this assay and about 2,200 (0.71%) showed an effect of 50% or more. Effects have a minus sign here. This is one part of the list.

Target: human ether-à-go-go-related gene (hERG) potassium channel (human, UniProt Q12809)
Experiment: primary screen, population patch clamp on CHO cells stably expressing hERG

Chain of human ether-à-go-go-related gene (hERG) potassium channel (Q12809 whole entry, looked up): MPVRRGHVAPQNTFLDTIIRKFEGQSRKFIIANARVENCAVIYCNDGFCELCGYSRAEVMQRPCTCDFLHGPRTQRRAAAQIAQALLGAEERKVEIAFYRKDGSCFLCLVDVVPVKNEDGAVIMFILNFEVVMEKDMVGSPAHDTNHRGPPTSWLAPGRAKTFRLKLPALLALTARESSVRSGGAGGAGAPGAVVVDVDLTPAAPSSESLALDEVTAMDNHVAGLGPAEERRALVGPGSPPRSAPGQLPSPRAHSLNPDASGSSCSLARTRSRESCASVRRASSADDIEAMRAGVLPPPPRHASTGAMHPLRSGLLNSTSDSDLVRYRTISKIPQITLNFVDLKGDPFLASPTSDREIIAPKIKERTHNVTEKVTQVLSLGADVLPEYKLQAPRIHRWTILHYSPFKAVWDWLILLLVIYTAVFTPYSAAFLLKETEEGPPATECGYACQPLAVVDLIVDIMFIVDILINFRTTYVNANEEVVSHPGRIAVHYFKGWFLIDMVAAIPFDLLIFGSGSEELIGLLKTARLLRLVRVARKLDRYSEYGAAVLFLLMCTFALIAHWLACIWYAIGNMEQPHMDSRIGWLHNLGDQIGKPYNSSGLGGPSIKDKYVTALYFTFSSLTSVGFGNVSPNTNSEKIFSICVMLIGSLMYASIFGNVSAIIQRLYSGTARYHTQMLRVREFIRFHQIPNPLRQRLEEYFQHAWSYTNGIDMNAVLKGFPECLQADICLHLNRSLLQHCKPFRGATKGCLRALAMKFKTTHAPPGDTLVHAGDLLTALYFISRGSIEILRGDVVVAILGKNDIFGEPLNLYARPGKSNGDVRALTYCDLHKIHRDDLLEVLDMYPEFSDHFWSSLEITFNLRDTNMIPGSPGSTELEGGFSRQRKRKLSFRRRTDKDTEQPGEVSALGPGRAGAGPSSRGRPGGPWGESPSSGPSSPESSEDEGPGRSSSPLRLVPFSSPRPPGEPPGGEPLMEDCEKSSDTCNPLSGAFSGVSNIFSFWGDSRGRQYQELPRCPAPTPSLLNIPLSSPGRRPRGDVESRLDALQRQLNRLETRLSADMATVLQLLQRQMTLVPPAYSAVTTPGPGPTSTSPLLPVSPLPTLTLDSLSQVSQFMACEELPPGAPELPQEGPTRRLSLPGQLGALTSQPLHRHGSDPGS

Compound | hERG current change (%, negative = inhibition) at 1uM [%]
CN(Cc1ccc(Cl)c(Cl)c1)C(=O)CN1C(=O)NC2(CCCC2)C1=O | 12
Cc1nc(-c2coc3c(CN(C)C)c(O)ccc3c2=O)cs1 | 13.9
COc1ccc(CC(=O)Nc2ncc([N+](=O)[O-])s2)cc1OC | 18.8
CCN1CCN(C(=O)C2=CC(c3ccc(C)cc3)=NS(=O)(=O)N2C)CC1 | 8.22
COc1ccc(CCNC(=O)C2CCN(S(C)(=O)=O)CC2)cc1OC | 14.4
COc1cccc(C=Nc2cccc3c(=O)[nH][nH]c(=O)c23)c1O | 2.18
CNC(=S)N/N=C(\C)c1ccc2c(c1)OCO2 | 15.1
CCOC(=O)C1CCCN(S(=O)(=O)c2ccc(OC)c3ccccc23)C1 (stereo not shown) | 2.96
CN1CCN(NS(=O)(=O)c2cccs2)CC1 | 7.32
Cc1ccccc1-n1nnnc1SC(C)C(=O)Nc1ccc(N2CCN(C)CC2)cc1 (stereo not shown) | 3.69
CCOc1ccccc1CNS(=O)(=O)c1ccc(-c2cnc(C3CC3)o2)cc1 | -7.07
Cc1ccc(C)c(NC(=S)N2CCCCCC2)c1 | 10.6
CC(=O)Nc1cccc(C(=O)NNC(=O)c2ccccc2-n2cccc2)c1 | 10.6
COc1ccc(-c2nnc3sc(-c4ccccn4)nn23)cc1 | 11.2
NC(=NCCc1ccccc1)NS(=O)(=O)c1ccccc1 | 13.3
Cc1cc(C#N)c(C)n1-c1cc(C(F)(F)F)ccc1N1CCOCC1 | 3.54
COc1cc(C2(c3ccc(O)c(OC)c3)C(=O)N(C)c3ccc(C)cc32)ccc1O | 3.42
COc1ccc(OC2C(=O)N(c3cc(C)ccc3C)C2c2ccc(OC)c(OC)c2)cc1 (stereo not shown) | 10.3
Cc1ccc(-n2nc3c(=O)n(CC(=O)NCCc4ccc(Cl)cc4)nc(C)c3c2C)cc1 | 18.2
Cc1cc(C)n(-c2nc3ccccc3c(=O)n2OCC(=O)N(C)C)n1 | 8.4
COc1ccc(OC)c(NC(=O)CCC(=O)Oc2ccc(C)cc2)c1 | 12.6
Cc1nnc(NC(=O)c2cccc(S(=O)(=O)N(C)c3cccc(Cl)c3)c2)s1 | 6.37

Compound | hERG current change (%, negative = inhibition) at 1uM [%]
CN(Cc1ccc(OC(F)F)cc1)C(=O)c1ccc(S(=O)(=O)N(C)c2ccccc2)cc1 | -19.2
C/C(=N/NC(=O)c1ccc(C)s1)c1cccnc1 | 1.48
O=[N+]([O-])c1ccccc1CN1CCN(Cc2ccc3ccccc3c2)CC1 | 12.2
CC1CCN(CCCNC(=O)c2ccc(CSCc3cccc(Cl)c3)o2)CC1 | -62.4
Cc1ccc(-c2nn(C)c(=O)c3ccccc23)cc1S(=O)(=O)N1CCCC1 | -1.06
CCC(C)N1C(=O)CCC1C(=O)NCc1ccc2c(c1)OCO2 (stereo not shown) | 12.6
CCNC(=O)Cc1c(OC)ccc2cc(Br)ccc12 | 8.61
COCCC(=O)N1CCCC(CCC(=O)NCc2ccc(F)c(F)c2)C1 (stereo not shown) | 8.27
COCCCNC(=O)/C(C#N)=C/c1c(N2CCN(c3ccc(OC)cc3)CC2)nc2c(C)cccn2c1=O | 13.1
COc1cc(/C=N/N2CCCCC2)cc(OC)c1O.O=P(O)(O)O | 10.9
CCOC(=O)C1=C(CCc2ccccc2)NC(=O)NC1c1ccc(Br)cc1 (stereo not shown) | 15.8
CCOC(=O)c1cc(-c2ccccc2)sc1NC(=O)C(C)OC(=O)c1cccnc1OCC (stereo not shown) | -1.5
COc1ccccc1C(=O)Nc1ccnn1C1CCN(Cc2cn(C)c3ccccc23)CC1 | -74.9
Cc1ccc(-n2nc(C)c3c2OC(N)=C(C#N)C3c2ccoc2)cc1 (stereo not shown) | 8.97
O=C(Nc1ccon1)C1CCN(S(=O)(=O)c2cccs2)CC1 | -4.01
Brc1ccccc1OCCN1CCOCC1.O=C(O)C(=O)O | 12.4
Cc1nc(CNS(=O)(=O)c2cccnc2)cs1 | 3.78
CCOc1ccc(NC(=O)C(=O)N/N=C/c2ccccc2F)cc1 | 11.5
CSCC[C@H](NC(=O)OC(C)(C)C)c1nnc(SCC(=O)Nc2ccc(C)cc2C)o1 | -5.16
COc1ccc(OC)c(S(=O)(=O)n2cccn2)c1 | 15.5
COc1cc(/C=N/NC(=O)c2cccc([N+](=O)[O-])c2)ccc1OC(=O)c1ccco1 | 6.03
CCCCN(CCCC)CCn1cnc2c([nH]c3ccc(OC)cc32)c1=O | -0.941

Compound | hERG current change (%, negative = inhibition) at 1uM [%]
CN(CC#CC1(O)c2ccccc2-c2ccccc21)Cc1ccccc1 | 0.0211
CCCn1c(O)c2ccc(C(=O)N=NC(=O)c3cccnc3)cc2c1O | 5.56
CCN(c1cccc(C)c1)S(=O)(=O)c1ccc2c(c1)oc(=O)n2C | 8.78
COc1ccc(CN(C)Cc2nc(Cc3ccccc3Cl)no2)cc1OC | 8.22
COc1ccc(S(=O)(=O)N2CCOCC2)cc1C(=O)N(C)Cc1ccccc1F | 1.94
CC(=O)c1c(C)[nH]c(C(=O)CSc2nnc(-c3ccco3)o2)c1C | 6.36
O=C(Nc1cc(Cl)ccc1N1CCOCC1)c1ccc2c(c1)OCCO2 | -2.5
CCOC(=O)N1CCC(NC(=O)CCN2C(=O)COc3ccccc32)CC1 | 10
O=C(NCC(=O)N1CCN(c2ccc(C(F)(F)F)cn2)CC1)c1ccc(Br)o1 | -34
COc1ccc(NC(=S)Nc2ccccn2)cc1 | 5.63
O=C(c1cccc(Br)c1)N1CCN(C(=O)N2CCCCC2)CC1 | 7.44
CCc1ccccc1NS(=O)(=O)c1c(C(=O)N2CCCCCC2)c(C)n(C)c1C | 0.158
COc1cccc(NC(=O)CCC2CCN(C(=O)c3c(C)noc3C)CC2)c1 | 17.9
CC1=NN(c2nc(-c3ccccc3)cs2)C(=O)C1 | 16.5
CC1CCCN(C(=O)NC2CC(=O)N(c3ccc4c(c3)OCCO4)C2)C1 (stereo not shown) | 8.65
CC1=NN(c2ccccc2)C(=O)/C1=C\c1cc(C)n(-c2ccccc2)c1C | 10.2
Cc1ccc(C)c(NC(=O)C(Sc2nc3ccccc3c(=O)n2CC(C)C)c2ccccc2)c1 (stereo not shown) | 6.59
O=C(Nc1nc(-c2ccccc2)c(-c2ccccc2)o1)c1ccc(F)cc1 | 13.5
NC(=O)CSc1nccn1Cc1ccc2c(c1)OCO2 | 12.3
COc1ccc(OC)c(-c2nc(C(=O)NC3CCN(Cc4ccccc4)CC3)cc3c2[nH]c2ccccc23)c1 | 7.39
O=C(CSc1nnc(-c2ccc(F)cc2)c2ccccc12)Nc1c(F)cccc1F | -1.41
COc1cc(NC(=O)c2ccc(F)cc2)c(OC)cc1NC(=O)CN1CCCCC1.Cl | -0.575

Compound | hERG current change (%, negative = inhibition) at 1uM [%]
CC(=O)NC(NC(=S)Nc1cccc(Br)c1)C(Cl)(Cl)Cl (stereo not shown) | -6.09
O=C1CC(N2CCN(c3ccccc3)CC2)C(=O)N1c1cccc(Br)c1 (stereo not shown) | 16.3
COc1cc(NC(=O)CSc2nc(C)c(C)c(C)n2)c(C)cc1[N+](=O)[O-] | 12.3
CCc1ccc(NC(=S)N2CCCCCCC2)cc1 | 9.19
N#CC(c1ccc(=O)[nH]n1)c1ccc(Cl)cc1Cl (stereo not shown) | 4.89
O=C(c1ccc2c(c1)C(=O)N(CCCO)C2=O)c1ccc2c(c1)C(=O)N(CCCO)C2=O | 9.23
CSc1nc(C)cc(SCC(=O)N/N=C/c2ccccc2)n1 | 1.49
Cc1cccc(C)c1NC(=O)C[N+](C)(C)CC(O)COc1cccc2ccccc12.[Cl-] (stereo not shown) | 0.617
CCOc1ccc(NC(=O)Cn2nnc(-c3ccccc3NC(=O)c3cccs3)n2)cc1 | -0.716
Cc1cc(/C=C(\C#N)C(=O)OCC#N)c(C)n1CC(C)C | 11.7
CCOC(=O)Cc1csc2nc3sc(C)c(C)c3c(=O)n12 | 5.5
O=C(Nc1cccc2ncccc12)c1ccc2c(c1)OCCO2 | 7.61
CCOC(=O)c1c(NC(=O)c2ccnn2C)sc(C)c1C | 18.3
COc1ccc(OC)c(CCNC(=O)c2ccc(CS(=O)Cc3ccc(Cl)cc3)o2)c1 (stereo not shown) | -9.85
Cc1nn(C(=O)c2cccnc2)c(C)c1C | 2.6
CC(=O)c1ccc(N(C(=O)c2csnn2)C(C(=O)NC(C)(C)C)c2cccs2)cc1 (stereo not shown) | -15
COc1cc(NS(C)(=O)=O)c(OC)cc1NC(=O)c1ccccc1 | 1.48
Cc1ccc(SC2CC(=O)N(c3ccc4c(c3)OCCO4)C2=O)cc1 (stereo not shown) | 17.1
Cc1cc(NC(=O)CN(C)CC(=O)Nc2ccc(F)c(F)c2F)no1 | 0.344
Cn1cnnc1SCc1nc(N)nc(Nc2ccccc2)n1 | 13.7
COC(=O)c1cc(OC)c(OC)cc1NC(=O)c1ccc(OC)c(OC)c1 | 5.71
CN(C)S(=O)(=O)N1CCN(Cc2ccccc2)CC1 | -2.04
